# Assay results reported in the supplement of paper PMC11417369.
# ± gives the standard deviation of the averaged measurements. Some of the results follow.
# Test system: PfAP2-G AP2 domain (GST-tagged)
# Assay: gcPBM binding intensity (ln(normalized median fluorescence intensity)); higher = stronger DNA binding
# Method in brief: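 GST-tagged P. falciparum DNA-binding domains, expressed in E. coli (about 25 μg on average), were applied for 1 h to an Agilent 4 × 180k array of primer-extended double-stranded 36-bp intergenic genomic probes plus negative controls. The binding buffer was 1× PBS with 1% milk, 0.2 mg/ml BSA, 0.5% salmon testes DNA and 0.03% Triton X-100. Bound protein was detected with Alexa488 anti-GST antibody and scanned at 488 nm. Binding intensity is the highest Masliner-normalised natural-log median intensity across replicate spots of either probe orientation.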
row,Sequence,gcPBM binding intensity (ln)
1,AATTTAATATAATGCACACATAAAACAAAAACAAAA [CACACA_site529],10.1 ± 0.26
2,TTATAATAATATAATACATGCATATATATTTAAATA [TGCATGCA_site903],9.62 ± 0.12
3,AAATATATTTTATGTACACACAAAATTAAGGGATAT [CACACA_site4881],11.5 ± 0.81
4,TGTTAATTATAAATTTGTACTTATTTTTACAAAATA [XGTACX_site6598],11.2 ± 0.87
5,ATAAACATATAAAAAGTGCATATTCATATATCTACT,9.94 ± 0.12
6,AATACACTAAACAAAAGTACAAAAATATTCTACAAA [XGTACX_site5162],11.1 ± 0.84
7,ATGGCCTCATTTGGGACACACAACATAAAATATATA [CACACA_site753],10.8 ± 0.64
8,AAAAAAAAAAAAATCACACATAATATAGAATATGTA [CACACA_site4993],9.59 ± 0.11
9,ATATATATATATATAACACACGCAAAAAAATTAAAT [CACACA_site8395],10.3 ± 0.34
10,AACTTAAAAAATAAATGTACATAAATATAAACATAT [XGTACX_site2987],11.1 ± 0.59
11,TATTTAAATTTTAAGTGTACATATTTATTTATATCT [XGTACX_site6545],11.4 ± 0.8
12,TATAAAAATGGGCACACACACACATATATATATTTA [CACACA_site1527],10.7 ± 0.42
13,TCACTATAATAATTTACACACATTTTAAGAAAATGT [CACACA_site3530],9.97 ± 0.085
14,AAAATGAATAAAAATACACACATATCTGTTATTCTC [CACACA_site5474],9.74 ± 0.2
15,GAATATTAATTCATACGTACTTATATATAAGTATAT [XGTACX_site3707],11.1 ± 0.59
16,ATTTTTTTTTTTTTTTTTTTTTTATTCTTGTAATCT [CACACA_negctrl_site1039],9.575 ± 0.078
17,ATATAATAATAAAGACGTACAAATGTATATATATAC [XGTACX_site3123],11.4 ± 0.87
18,CCTTTTTATCTTTTTGTGCACAGACCTTTTTTAAAT,10.8 ± 0.45
19,ATGTAAGTTGTGCATTCACACACATATATATATATA [CACACA_site9086],10.3 ± 0.42
20,AAAAAAAAAAAAAACATACACACAATAAAATAGGGG [CACACA_site2398],10.6 ± 0.26
21,ACATAAATATAAACGTGTACATATATAAATATATAT [XGTACX_site7293],11.6 ± 0.95
22,CATATATAAAAAAACACACACATATATATATATATA [CACACA_site1195],10.1 ± 0.37
23,TATATTTTATATATGGTGCAACTTTTATTTAAATAA,10.2 ± 0.4

row,Sequence,gcPBM binding intensity (ln)
1,ATTTTTTTTTTTTATAGTGGATCCACATTTGCCATT [CACACA_negctrl_site1284],10.3 ± 0.36
2,ATATATTTTAATTGTTGTACATATTAAATAAATAGG [XGTACX_site2311],11.4 ± 0.72
3,TTACAAGTAAAAGGTACACACATTATAAATACAAAT [CACACA_site4752],11.4 ± 0.93
4,ATGTATATGTCTATATGTACTTATATTTTATTTTTT [XGTACX_site5902],11.2 ± 0.95
5,TGTTTTATCTTATATGCACACGATAAAAAAAAAAAA [CACACA_site2674],10.2 ± 0.41
6,AAGAAAGACATTACGTGTACCAAACAACCTACCAAC [XGTACX_site4219],11.1 ± 0.58
7,AAAATTAAACTCACACCACACACAAAAAAAAAAAAA [CACACA_site8131],10.1 ± 0.49
8,ATTTACATAATAAAATGTACATTTATAAATATTATA [XGTACX_site1901],10.9 ± 0.51
9,TACACTTTTTATGAAGTGCATGTATAGCTCTTAAAA [GTGCAC_site9595],9.915 ± 0.049
10,TGAGTACACAATAATACATGCAATTCCTATGAATAT [TGCATGCA_site851],11.3 ± 1
11,ATAAATATTAAAAGTACACACAGATACACTAATTAT [CACACA_site1808],11.6 ± 0.96
12,ATATGACATAAAACATGTACATGTTCATAAATATAT [XGTACX_site1923],11.1 ± 0.5
13,ATGCTCAGGAAAACATGTACAAAATTATTTGTTATA [XGTACX_site4306],10.8 ± 0.58
14,CATTATTCATTTTGGATGCACTGACAGAAAAATGGT,10.4 ± 0.18
15,AGTTTTTATAAAAATAGTACATATTTATTAATCTGT [XGTACX_site5881],11.2 ± 0.64
16,AAAATTGAACCTGACAAGGTATTTTATTATTTATTA [TGCATGCA_negctrl_site181],9.69
17,TTCTATTTTAATATCTGTACATAATAAAGATCCATT [XGTACX_site1142],11.2 ± 0.74
18,TTTTGTGCTTAAAAAAGTACAAAATATAAAAAAAAT [XGTACX_site7876],11.3 ± 0.88
19,TGCAGTCTGGAGAAACGTACACAGTATCTGGTAACC [XGTACX_site2543],11.4 ± 0.99
20,CCCACAGACGGACACACACACACACCGACACATATA [CACACA_site4356],11.5 ± 0.88
21,TTATTTATTTATAATTGTACATTGCAAATGAATTTA [XGTACX_site4083],10.4 ± 0.3
22,ATATATATATATATATGTACATAGAGAAGTATCTTT [XGTACX_site4737],11.2 ± 0.8
